Test results taken from the RNAGym collection of RNA variant scans (doi:10.1093/nar/gkz1192).
Read counts are not given, so values of variants with three or more changes are uncertain.

B1: CPEB3 Ribozyme (parent)
chain: UAACAGGGGGCCACAGCAGAAGCGUUCACGUCGCAGCCCCUGUCAGAUUCUGGUGAAUCUGCGAAUUCUGCUGUAUAUCUC

Variants of: B1
Assay: self-cleavage, relative activity (ratio to wild type); higher = more cleavage; in vitro, sequencing
In short: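 For each CPEB3 ribozyme variant, relative activity is its cleaved/total read fraction divided by the unmutated ribozyme's. Barcoded error-prone PCR libraries were transcribed by T7 RNA polymerase (5 hours, 37°C) and held in DNase I for 15 min before an EDTA stop, with cleavage occurring throughout. Template-switching reverse transcription and Illumina sequencing were used to read the RNAs. A 5-read minimum applied, and results are the mean of three batches.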

Row | Variant | self-cleavage
1 | A5U A13U U25C A64G U72A | 0.18
2 | A5U A20G U31C U51A U69C | 0.2
3 | A5U A20U U26C A35C U54C U67C | 0.09
4 | A5U A15U U43C | 0.28
5 | A5U A20U G30U A45U A57C | 0.13
6 | A5U A20G C34A U67C | 0.15
7 | A5U A18U A21G U80C | 0.09
8 | A5U A18U U26C A47G U58C U74C | 0.23
9 | A5U A18U U51C U60A U66C U76A A77U | 0.38
10 | A5U A20G U31C U67C U69C U80C | 0.16
11 | A5U A15U U49A A64G U80A | 0.69
12 | A5U A15G C29U U51C U58C | 0.19
13 | A5U A18G A47G U78C | 0.93
14 | A5U A18U A20G U51G A64G A65U U80A | 0.11
15 | A5U A15U C23U U41C A45G | 0.09
16 | A5U A15G C37U A45C U78C | 0.07
17 | A5U A15G G30A U41A A64G U72A | 0.09
18 | A5U A20U C29G U74C | 0.11
19 | A5U A20U A65G | 0.21
20 | A5U A15G U25C U41A A47G U48C U69C | 0
21 | A5U A15G C27U A64U | 0.08
22 | A5U A18U U31A U41A A45G C79A | 0.49
23 | A5U A18U A20G U43A A64U U72C | 0.35
24 | A5U A18G U69A | 0.71

Row | Variant | self-cleavage
25 | A5U A20G U43C U66C | 0.2
26 | A5U A15U A28U U49C G53U A57U A75U | 0.11
27 | A5U A13U U41C G52U | 1.2
28 | A5U A13U U26A U60C | 0.7
29 | A5U A20G U69A | 0.48
30 | A5U A15U U58C | 0.18
31 | A5U A18G C40U U51A | 0.41
32 | A5U A18U U31A A35U U41A A57G | 0.05
33 | A5U A20G U67C U69C | 0.57
34 | A5U A21G A35G U43A U69A | 0.69
35 | A5U A18G A28G U60A | 0.63
36 | A5U A13U U58C U80C | 0.76
37 | A5U A15G U25C | 0.57
38 | A5U A20G U31G U49C | 0.19
39 | A5U A18U C62U | 0.12
40 | A5U A20G A35U U58A U72C U74C | 0.13
41 | A5U A20U U31G G33U C39G U54A | 0.08
42 | A5U A18G U51C U60C | 0.1
43 | A5U A18G G19A U80C | 0.51
44 | A5U A20G A35U U51C | 0.13
45 | A5U A18G A56G | 0.66
46 | A5U A15G U41C U43C | 0.31
47 | A5U A13U U41C A45G | 1.16
48 | A5U A18U A20U C23G C27A C39G | 0.05

Row | Variant | self-cleavage
49 | A5U A15C U26C U49C | 0.1
50 | A5U A18U A28G A45G A57G U78C U80C | 0.14
51 | A5U A15U U69A U74G | 0.34
52 | A5U A15G U67C | 0.26
53 | A5U A20G U43C A56C U69A U78C | 0.09
54 | A5U A18G U49A A64G U69C | 0.26
55 | A5U A20G C29U A35G C59A | 0.24
56 | A5U A20G G24A C50A U60C G70A U76C | 0.06
57 | A5U A20G A28U C29U | 0.23
58 | A5U A15G U26G U78C | 0.15
59 | A5U A20G U74C U76C | 0.94
60 | A5U A18G A28C C37U U43A A64G | 0.17
61 | A5U A20U A35U | 0.3
62 | A5U A18U U41C A56G | 0.2
63 | A5U A20G A45G U48C A57G U78C | 0.64
64 | A5U A18G G42A | 0.47
65 | A5U A20G A21U U60C U76C | 0.09
66 | A5U A21G A64G A65G U66C | 0.27
67 | A5U A20U U31A C32G G36A A45U A65G | 0.16
68 | A5U A15G U48C C62U | 0.21
69 | A5U A15G U26A C39U U72C | 0.93
70 | A5U A13U U48C A64G U80C | 0.94
71 | A5U A21G C27A C44A A57G U60A C62U | 0.15
72 | A5U A20G U25C A47G | 0.44

Row | Variant | self-cleavage
73 | A5U A15G G22A U49A A56U U58C A64G | 0.05
74 | A5U A15U A20U C40A A56U A64G U66C | 0.2
75 | A5U A18G A20G U26G A28U | 0.11
76 | A5U A18G C29U U48G U78C | 0.25
77 | A5U A13U U25C U26C A64G | 0.07
78 | A5U A15U C29A C59G U72C | 0.14
79 | A5U A18U U41C | 0.61
80 | A5U A18U A20C A45G G46C | 0.17
81 | A5U A18U A57G C71U | 0.36
82 | A5U A20U U58C | 0.16
83 | A5U A20G U25A G53C A56G | 0.11
84 | A5U A15G U25A U49C A64G | 0.41
85 | A5U A18U U48C U67C | 0.17
86 | A5U A20U U25C U41C U48A U74C U78C | 0.15
87 | A5U A18G U25C C32U | 0.03
88 | A5U A20G A56U | 0.54
89 | A5U A21G A75G | 0.65
90 | A5U A18U A45G U58C | 0.18
91 | A5U A20U A28G U54G U74C | 0.12
92 | A5U A13U U51A A64G | 1.25
93 | A5U A20U A45G U74A A75U | 0.55
94 | A5U A20G A47G U60C U72C | 0.27
95 | A5U A18U U31C U49C G55C C59A A64G | 0.05
96 | A5U A18U U48C C81G | 0.16

Row | Variant | self-cleavage
97 | A5U A18U C34U A35G U58A U72G | 0.08
98 | A5U A13U U43A A47U U51C U60C A64G | 0.05
99 | A5U A20U A35G A64C U78C | 0.21
100 | A5U A20U C34A U49A | 0.22
101 | A5U A15G C37U U60G U72C U78C | 0.38
102 | A5U A21G A35U A65G | 0.17
103 | A5U A15G U26A U43C A64G U76C C79G | 0.15
104 | A5U A15U U72A | 1.16
105 | A5U A18U C44U A56U A65G | 0.1
106 | A5U A15U U25A A45U U72A | 0.16
107 | A5U A15U U43A U60A U69A | 0.34
108 | A5U A15U A35U U41C U43C | 0.13
109 | A5U A18G U80C | 1.02
110 | A5U A15G A20G U41A A47G A77G | 0.07
111 | A5U A15U U48C | 0.47
112 | A5U A15U A20U U43A A57G | 0.11
113 | A5U A15U U41C U54A U72G | 1.07
114 | A5U A15G U43C G52A U69C U78C | 0.19
115 | A5U A15U A20G U25G A45U U67C | 0.08
116 | A5U A18G U43C U72C | 0.25
117 | A5U A15G C37U U58C | 0.23
118 | A5U A21G A28G C50A | 0.53
119 | A5U A18G U26A U51A U60C U72C U78A | 0.29
120 | A5U A20U U25C U48C A64G | 0.14

Row | Variant | self-cleavage
121 | A5U A13U U67C | 0.27
122 | A5U A15C U58C A65U | 0.14
123 | A5U A15G U41C G52A U74G | 1.05
124 | A5U A13U U25C A64G C71U | 0.2
125 | A5U A20U C29U U49A U51A U72A | 0.08
126 | A5U A15G U25C A28U U41C A64C | 0.15
127 | A5U A20G U25A A28G U49G A64G | 0.16
128 | A5U A13U U74C | 1.24
129 | A5U A18C C27U A77U | 0.24
130 | A5U A15G C17U U67A | 0.12
131 | A5U A15U A21U U66C | 0.13
132 | A5U A18U U26G U67C | 0.34
133 | A5U A20U C23U U25C A45U A75U | 0.08
134 | A5U A13U U31C A45G U67C U80C | 0.29
135 | A5U A18U A65G | 0.29
136 | A5U A20G C32U A56U U67C | 0.3
137 | A5U A20G C59U | 0.44
138 | A5U A20U U66C | 0.25
139 | A5U A18G C40A U43C | 0.12
140 | A5U A20G U48C | 0.41
141 | A5U A18G A28G U41A | 0.43
142 | A5U A15G C23U A64U U76A | 0.31
143 | A5U A15U A20G U25G U76A U78C | 0.57
144 | A5U A18U C29G U31C U43C A77G | 0.03

Row | Variant | self-cleavage
145 | A5U A15G A20G U26A | 0.34
146 | A5U A20G U41C U74A | 1.08
147 | A5U A21G A56C U72A | 0.13
148 | A5U A18G U43C U48C | 0.47
149 | A5U A15G C23G A75G | 0
150 | A5U A18G A21G A28G A56G A57G | 0.33
151 | A5U A13U U80C | 1.21
152 | A5U A18G U49A A56G U66C | 0.23
153 | A5U A20G A35G G73A U78C U80C | 1.3
154 | A5U A20G U43C | 0.68
155 | A5U A20G A28U C29U U72A | 0.29
156 | A5U A20G U48C U69C | 0.25
157 | A5U A18G A21G A56G C62U | 0.15
158 | A5U A18U U48C G52U | 0.5
159 | A5U A20U C29U A35G U54A A64G | 0.04
160 | A5U A18G A47G | 0.63
161 | A5U A15G U43A A47G U74C | 1.12
162 | A5U A15G C23U G33A A64G U78A | 0.7
163 | A5U A20U U66C U69C | 0.2
164 | A5U A20U A56G U76C | 0.28
165 | A5U A15U A21G U26C U72C U76C C81U | 0.18
166 | A5U A18G U74C A75U U76A | 1
167 | A5U A13U U26C | 0.98
